# According to PubChem BioAssay AID686978 (National Center for Advancing Translational Sciences (NCATS), 2013):
# Values joined by “and” are separate entries in the source; they are usually repeats but may differ in a detail not shown here. Equal entries are not always repeated. The campaign covered roughly 420,000 compounds. About 64,000 (15%) were called active. Inconclusive results, whose numbers are uncertain, are shown with a selection of clear calls. The call rests on the fitted dose curve; in most records, active means well fitted inhibition curve with a large enough effect; inconclusive means small, poorly fitted or top-dose-only effect; inactive means flat fitted curve, though single readings scatter. Where the call is inconclusive, the potency comes from a doubtful curve fit.
# Test: qHTS for Inhibitors of human tyrosyl-DNA phosphodiesterase 1 (TDP1): qHTS in cells in absence of CPT; further: nearly all actives have a fitted effect of over 55% in size
# Details: DT40 Tdp1-/- hTDP1 cells, no CPT, ATP luminescence, 48 h; series mostly up to 46.2 µM
# Procedure, shortened: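 No-CPT arm: Tdp1-/-;hTDP1 DT40 cells (400/well) plus compounds, incubated ≥48 hr at 37 °C. Readout CellTiter-Glo luminescence.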
# Potency means the concentration at half of the fitted maximal effect; tags describe the fitted curve by direction and shape.
row,SMILES,Potency
1,Cc1ccc(OCCn2c(=O)sc3ccccc32)cc1,"inconclusive: 23.1 µM [inhibitor, partial curve]"
2,CCN(CC)S(=O)(=O)c1cccc(-c2nnc(SCC(=O)c3cc(C)n(C)c3C)o2)c1,active: 20.6 µM
3,O=[N+]([O-])c1ccccc1S(=O)(=O)N1CCN(c2ccc(F)cc2)CC1,inactive
4,C[N+]1(CCOC(=O)C2(c3ccccc3)CCCC2)CCCCC1,"inconclusive: 7.31 µM [inhibitor, partial curve]"
5,CCC(C(=O)OC)n1c(-c2ccccc2)nc2ccccc2c1=O (centres undefined),"inconclusive: 29.1 µM [inhibitor, single point]"
6,Cc1ccccc1NC(=O)CN1C(=O)COc2ccc(Cl)cc21,inactive
7,COc1cccc(C(=O)C2CCCN(Cc3cccn3-c3cccnc3)C2)c1 (centres undefined),"inconclusive: 23.1 µM [inhibitor, single point]"
8,COc1ccc(C(=O)NCCN2CCN(C(=O)c3ccc(OC)cc3)CC2)cc1,inactive
9,Cc1ccc(C2CC(=O)Nc3cc4c(cc32)OCCO4)cc1Br (centres undefined),active: 16.4 µM
10,COc1ccc(CNc2oc(COc3ccccc3Cl)nc2C#N)cc1,"inconclusive: 23.1 µM [inhibitor, single point]"
11,O=C(Nc1cc(-c2nc3ncccc3o2)ccc1Cl)c1ccc2c(c1)OCO2,"inconclusive: 1.84 µM [inhibitor, full curve, poor fit]"
12,CCCCCCCCCCCCCCCCn1cc[n+](CC(C)=O)c1,active: 1.3 µM
13,CCOc1ccc(-c2c(C(=O)N/N=C/c3ccco3)nnn2-c2nonc2N)cc1,"inconclusive: 25.9 µM [inhibitor, single point]"
14,O=C(Cc1ccc(Cl)cc1)Nc1ccc(Br)cc1,"inconclusive: 16.4 µM [inhibitor, partial curve, poor fit]"
15,COc1ccc(CCNCC(=O)Nc2ccccc2C(F)(F)F)cc1,"inconclusive: 29.1 µM [inhibitor, single point]"
16,O=C(NCCc1ccccc1)C(c1cccs1)N(C(=O)CCl)c1ccc(Cl)cc1 (centres undefined),active: 1.64 µM
17,CCC(=O)Nc1c(S(=O)(=O)c2ccccc2)c2nc3ccccc3nc2n1C(C)c1ccccc1 (centres undefined),"inconclusive: 16.4 µM [inhibitor, partial curve]"
18,COC(=O)C1=C(C)NC(=O)CC1c1cc(Br)ccc1F (centres undefined),"inconclusive: 18.4 µM [inhibitor, single point]"
19,CCOc1ccc(CCNC(=O)c2cc(=O)[nH]c3ccc(S(=O)(=O)N4CCCCC4C)cc23)cc1OCC (centres undefined),"inconclusive: 25.9 µM [inhibitor, single point]"
20,COC(=O)c1cc(C(C)=O)c(C)[nH]c1=O,inactive
21,COc1ccc(Cc2nc3ccc(C(=O)N(C)CCc4cnn(C)c4)cc3o2)cc1OC,active: 8.2 µM
22,NS(=O)(=O)c1ccc(CNc2ncnc3sccc23)cc1,"inconclusive: 29.1 µM [inhibitor, single point]"
23,CCn1c(/N=C/c2c[nH]c3ccccc23)nc2ccccc21,"inconclusive: 29.1 µM [inhibitor, single point]"
24,Cc1ccc(OCc2cc(C(=O)N3CCN(C4CCCCC4)CC3)no2)cc1C,"inconclusive: 23.1 µM [inhibitor, single point]"
25,CCn1c(=O)c2c(nc3n2CCN3c2ccc(OC)cc2)n(C)c1=O,inactive

row,SMILES,Potency
1,Cc1cccc(N2CCN(CC(O)COc3ccc(Cl)cc3)CC2)c1 (centres undefined),active: 13 µM
2,O=C(Nc1ccc(S(=O)(=O)N2CCCCC2)cc1)C1CC(=O)N(c2ccccc2)C1 (centres undefined),"inconclusive: 20.6 µM [inhibitor, single point]"
3,Cc1ccc(-c2noc(CCC(=O)N(C)c3ccccc3F)n2)cc1,"inconclusive: 25.9 µM [inhibitor, single point]"
4,CCN(CC)CCn1c2c(c(SCC(=O)Nc3ccc(F)c(F)c3)nc1=O)CCC2,inactive
5,Cc1cccc(NC(=S)N/N=C/c2c[nH]c3ccccc23)c1,active: 2.59 µM
6,C[C@H](CO)N1C[C@H](C)[C@H](CN(C)S(C)(=O)=O)Oc2c(cccc2N(C)C)C1=O,inactive
7,CC(C)[C@H](NC(N)=O)C(=O)Nc1ccc2c(c1)CCC2,inactive
8,Cc1cc(C(=O)COc2cccc3cccnc23)c(C)n1C,"inconclusive: 16.4 µM [inhibitor, partial curve]"
9,CC(C)NC(=O)NNC(=O)c1cc(COc2cc(Cl)cc(Cl)c2)on1,inactive
10,CC(Sc1nnc(C2CC2)n1Cc1ccccc1)C(=O)N1CCNC1=O (centres undefined),inactive
11,CCCCNC(=S)N/N=C/c1ccccc1F,active: 14.6 µM
12,C/C(=N\NC(=O)c1nnn(-c2nonc2N)c1CN1CCC(C)CC1)c1ccc(Br)cc1,"inconclusive: 20.6 µM [inhibitor, single point]"
13,CCCC(NC(=O)Cc1c(C)c2c(cc(C)c3c(C)coc32)oc1=O)C(=O)O (centres undefined),inactive
14,O=C(Nc1ccc(NC(=O)c2cccs2)cn1)c1ccccc1,"inconclusive: 16.4 µM [inhibitor, single point]"
15,c1ccc(-c2nnc3nc(N4CCCCC4)nc(N4CCCCC4)n23)cc1,active: 14.6 µM
16,COCCNC(=O)Cn1ccc2cc(S(=O)(=O)N3CCCCCC3)ccc21,inactive
17,COc1ccc(CCNC2=CC(=O)CC(C)(C)C2)cc1,"inconclusive: 29.1 µM [inhibitor, single point]"
18,CCOC(=O)C1(Cc2cccc(Cl)c2)CCCN(C(=O)C(C)(C)C)C1 (centres undefined),"inconclusive: 8.2 µM [inhibitor, single point]"
19,CC1CN(C2=N/C(=C/c3ccc4c(c3)OCO4)C(=O)N2)CC(C)O1 (centres undefined),"inconclusive: 11.6 µM [inhibitor, partial curve]"
20,N#Cc1nc(-c2cccc3ccccc23)oc1NCCN1CCCCC1,active: 16.4 µM
21,COCCn1cnnc1SCC(=O)Nc1cc(OC)c([N+](=O)[O-])cc1C,inactive
22,COc1ccc(N(CC(=O)NCCSc2ccccn2)S(=O)(=O)c2ccccc2)c(OC)c1,active: 20.6 µM
23,O=C(c1ccc2ccccc2c1)N1CCN(c2ccccc2)CC1,inactive
24,O=C(Cc1ccccc1)Nc1ccc(-c2nnc(-c3ccco3)o2)cc1,inactive
25,Cc1noc(C)c1-c1cc(NCc2ccccc2)ncn1,active: 23.1 µM

row,SMILES,Potency
1,O=C(Nc1cccc(-c2cn3cccnc3n2)c1)c1ccc(Br)o1,"inconclusive: 29.1 µM [inhibitor, single point]"
2,O=C(NC1CCCCCC1)C1CCCN(S(=O)(=O)c2cccs2)C1 (centres undefined),"inconclusive: 20.6 µM [inhibitor, partial curve]"
3,O=C(Cc1ccc(Br)cc1)OCC(=O)N1CCCCCC1,inactive
4,O=C(Nc1cccc(Cl)c1Cl)c1csc([C@@H]2O[C@H](CO)[C@@H](O)[C@H]2O)n1,"inconclusive: 23.1 µM [inhibitor, partial curve]"
5,COc1ccccc1Cc1c(-c2cccc(Br)c2)nc2ccc(Cl)cn12,"inconclusive: 29.1 µM [inhibitor, single point]"
6,CCn1c(=O)cc(OCC(=O)NC(C)c2ccc3c(c2)OCCO3)c2ccccc21 (centres undefined),"inconclusive: 29.1 µM [inhibitor, single point]"
7,N#C/C(=N\Nc1ccc([N+](=O)[O-])cc1)C(=N)N1CCOCC1,inactive
8,CCCC(=O)NC(c1cccs1)c1cc(Cl)c2cccnc2c1O (centres undefined),active: 2.91 µM
9,Cc1n[nH]c(C)c1CCNC(=O)C1CCC(=O)N(Cc2ccccc2F)C1 (centres undefined),inactive
10,C[C@H](CO)N1C[C@H](C)[C@@H](CN(C)C(=O)Nc2ccc(N3CCN(C)CC3)cc2)OCc2cnnn2CCCC1=O,"inconclusive: 3.66 µM [inhibitor, partial curve]"
11,Cn1nc(C(=O)NCC(c2cccs2)N2CCOCC2)c2ccccc2c1=O (centres undefined),active: 16.4 µM
12,CC(=O)Nc1cc(-c2ccccc2)cn2c(-c3ccc(F)c(Cl)c3)cnc12,"inconclusive: 29.1 µM [inhibitor, single point]"
13,Cc1ccc(S(=O)(=O)N(C)C)cc1NC(=O)COC(=O)C1CCCC1,inactive
14,COc1cc(-c2cccc([C@H]3[C@@H]4C=CC[C@@H](C)[C@@H]4C(=O)N3Cc3ccccc3)c2)cc(OC)c1OC,active: 7.31 µM
15,Cc1ccc(N=CC=C2OC(C)(C)C(C)(C)O2)cc1,inactive
16,Cc1cnc(NC(=O)C2(C)CCN2C(=O)C(C)C)s1 (centres undefined),inactive
17,COc1c(C(=O)Nc2nccs2)ccc2ccccc12,"inconclusive: 16.4 µM [inhibitor, single point]"
18,CCCc1cc(=O)n2[nH]c(NCc3c(F)cccc3Cl)nc2n1,"inconclusive: 32.6 µM [inhibitor, single point] and inconclusive: 23.1 µM [inhibitor, single point]"
19,COc1ccc(N2CCN(S(=O)(=O)c3ccc4c(c3)C(C(C)C)C(=O)N4)CC2)cc1 (centres undefined),active: 8.2 µM
20,CCOC(=O)C(C)c1nn(C)c(=O)c2ccccc12 (centres undefined),"inconclusive: 29.1 µM [inhibitor, single point]"
21,CCC(C)(C)NC(=O)C(c1cccn1C)N(C(=O)Cn1nnc2ccccc21)c1ccccc1OC (centres undefined),"inconclusive: 20.6 µM [inhibitor, single point]"
22,CC(OC(=O)c1ccc(O)cc1)C(=O)Nc1cc(C(F)(F)F)ccc1Cl (centres undefined),"inconclusive: 16.4 µM [inhibitor, single point]"
23,CCC(C)NC(=O)COCc1cc(-c2ccc3c(c2)OCO3)on1 (centres undefined),inactive
24,C[C@H]1COc2cccc(N3CCN(Cc4ccccc4F)CC3)c2S(=O)(=O)N1,"inconclusive: 20.6 µM [inhibitor, partial curve, poor fit]"
